Results taken from the supplement of paper PMC3334620.
Over roughly 33,000 sequences, “E-score (-0.5 to 0.5)” has its median near -0.041; the highest 2% begin near 0.37. This is one part of the list.

Target: T1, Ecm22 (UniProt Q05958)
T1 sequence: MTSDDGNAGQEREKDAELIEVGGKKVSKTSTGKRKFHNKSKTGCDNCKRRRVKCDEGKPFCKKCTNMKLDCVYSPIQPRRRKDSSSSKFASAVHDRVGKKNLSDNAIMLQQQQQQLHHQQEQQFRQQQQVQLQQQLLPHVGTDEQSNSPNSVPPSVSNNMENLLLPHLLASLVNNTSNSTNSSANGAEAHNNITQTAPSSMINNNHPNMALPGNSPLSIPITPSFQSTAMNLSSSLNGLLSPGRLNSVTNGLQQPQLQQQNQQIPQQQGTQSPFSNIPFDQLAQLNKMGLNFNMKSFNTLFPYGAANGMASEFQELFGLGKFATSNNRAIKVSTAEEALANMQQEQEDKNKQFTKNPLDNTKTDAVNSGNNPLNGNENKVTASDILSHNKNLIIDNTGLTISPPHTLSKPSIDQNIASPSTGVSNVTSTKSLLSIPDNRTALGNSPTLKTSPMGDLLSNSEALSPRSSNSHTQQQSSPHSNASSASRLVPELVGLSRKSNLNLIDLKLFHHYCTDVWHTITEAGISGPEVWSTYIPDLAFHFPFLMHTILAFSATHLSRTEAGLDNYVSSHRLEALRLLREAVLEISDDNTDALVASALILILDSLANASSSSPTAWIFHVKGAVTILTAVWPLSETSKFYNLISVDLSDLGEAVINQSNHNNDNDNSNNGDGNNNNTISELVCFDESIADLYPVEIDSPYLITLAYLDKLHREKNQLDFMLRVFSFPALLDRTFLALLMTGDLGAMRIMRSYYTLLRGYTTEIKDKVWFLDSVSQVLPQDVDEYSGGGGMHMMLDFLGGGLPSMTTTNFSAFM
Test: PBM E-score (8-mer binding enrichment) (E-score (-0.5 to 0.5)); higher = stronger / more preferred TF binding; most listed sequences are background and not binding sites
Conditions: protein concentration: 200 nM; construct: GST-full length
Method: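 Universal 'all 10-mer' protein binding microarrays (Agilent AMADID 015681) probed with GST-tagged S. cerevisiae TFs (full-length or DBD) made by in vitro transcription/translation (PURExpress), about 100-200 nM. Bound TF was detected with fluorescent anti-GST. Each ungapped 8-mer (which stands for itself and its reverse complement) is scored by the PBM enrichment score (E-score), a modified Wilcoxon-Mann-Whitney statistic from -0.5 to +0.5, computed with the Universal PBM Analysis Suite. Scale: above 0.35 generally sequence-specific binding.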

Row | Sequence | PBM E-score
1 | CTGTCAAA | -0.0479
2 | GTCACACA | -0.0919
3 | ACTACTAT | 0.095
4 | GATGGCGC | -0.132
5 | CGTGGATC | -0.0292
6 | ACCTCGGA | 0.166
7 | AAGCGAGA | 0.247
8 | GCGGCACA | -0.0267
9 | GACCCGGC | -0.0318
10 | GGTTCGGA | -0.1
11 | CACGTTGA | -0.114
12 | ATTTAACC | -0.107
13 | GTTTAGCA | 0.088
14 | ATGAGCGA | 0.358
15 | AGCAAACG | 0.266
16 | TCTACAGA | -0.0733
17 | ATGGGATG | -0.251
18 | ACCTAAGG | -0.238
19 | ATTTTCGC | 0.00272
20 | CTGGCACA | -0.184
21 | CAAATGAC | -0.269
22 | AATAGCAC | -0.111
23 | GCGTAGTA | -0.127
24 | GTCATCAA | -0.114
25 | AACTCAAC | -0.0436

Row | Sequence | PBM E-score
26 | GCCAGGCC | -0.0366
27 | CACTTGTC | -0.00196
28 | GGGCTTTA | -0.156
29 | ACGCTGAA | 0.176
30 | AAGACCGT | 0.00154
31 | CTTATGGC | -0.113
32 | GTCCAACA | -0.042
33 | TAACTCCA | -0.121
34 | GCGCCTCC | -0.0784
35 | CTAGCCGA | 0.0211
36 | CTCGCTGC | 0.0374
37 | AGTCCCGA | -0.11
38 | AGTTAGGC | -0.0269
39 | AACGTCAT | 0.0448
40 | AGCATCAA | -0.129
41 | ACGTCCGG | -0.155
42 | ACATTACT | -0.165
43 | GAGTAATA | 0.0346
44 | AGACTCTC | -0.0739
45 | CCATTAAC | -0.109
46 | TCGTGGAA | 0.116
47 | AAGAAGCC | -0.0728
48 | CGAGATTA | 0.236
49 | CTTCACAC | 0.0546
50 | AGGTTCAA | -0.0733

Row | Sequence | PBM E-score
51 | ATAGTAGG | -0.113
52 | CTGTGCGC | -0.0884
53 | TACCTAAA | -0.0575
54 | GGGCGGAC | -0.247
55 | GTTGAAAC | 0.0017
56 | ATAACTGA | 0.0764
57 | TGGCACAA | -0.212
58 | CATCTGCG | 0.0576
59 | AGTTGAAA | -0.146
60 | CGTTTTGA | 0.112
61 | CCAGTGGA | -0.248
62 | CCGACAAG | 0.0206
63 | CCCTCTCC | -0.358
64 | ATATGTGA | -0.133
65 | AGATGCGA | 0.265
66 | CTCCGGGA | -0.102
67 | CCAAGAGA | -0.261
68 | CGTTGGTC | -0.0184
69 | CCTTTCGC | 0.047
70 | CACCGTAG | 0.0943
71 | ACTCCTAT | -0.0305
72 | CGGGTACA | 0.157
73 | CGCCCGCG | -0.0317
74 | ACCTTCAA | -0.226
75 | ACGAGCAC | 0.346

Row | Sequence | PBM E-score
76 | CAAGTCGC | -0.00243
77 | CCATCTCA | -0.275
78 | AGAAATTG | 0.107
79 | CTACTCTC | -0.116
80 | GGCCTATA | 0.0269
81 | CCATCGCA | 0.0116
82 | AGTGCGGC | -0.157
83 | AATTTTAG | 0.0173
84 | ATACGCTC | 0.304
85 | GCCAAGCA | -0.249
86 | ATAGCCCC | -0.223
87 | CCATCAAA | -0.0424
88 | CAGATCAA | -0.191
89 | GTATCATA | 0.303
90 | CGGTGAAG | 0.0375
91 | ACGTCAGA | -0.121
92 | CTGGACTC | -0.0942
93 | AAGCCTTC | -0.294
94 | AGTGGGAT | 0.0345
95 | CCTTCCCA | -0.134
96 | AAGACCCA | -0.276
97 | CTAATACA | -0.226
98 | GCACACGC | -0.172
99 | AAATAACA | -0.0111
100 | CCAGAAGC | -0.191

Row | Sequence | PBM E-score
101 | GATACGGC | 0.32
102 | TAATCTAA | -0.0311
103 | CCAACGAA | 0.0596
104 | CTGAACCC | 0.0346
105 | GCGACAAC | 0.178
106 | AAGTAACC | -0.122
107 | GAAGTTCC | -0.143
108 | GTACTCCA | -0.0378
109 | GAATTCTA | -0.00562
110 | CCTCATTC | -0.203
111 | TAGACCGA | 0.175
112 | ATGCGTCA | 0.0653
113 | GCCTAATA | -0.0452
114 | ATCGTATG | 0.438
115 | CTATAAAA | 0.0168
116 | CCACAAGA | -0.185
117 | CACGACAC | 0.147
118 | CCGGCGGC | -0.134
119 | AGACACAC | -0.0414
120 | GGATAAAA | -0.0296
121 | ATAGCATG | -0.166
122 | ATGTTGTC | 0.0281
123 | CGAACCCC | 0.0698
124 | AGGTGCGC | 0.044
125 | AGGGGCAC | -0.183

Row | Sequence | PBM E-score
126 | GTCCGAAC | 0.0257
127 | CGCGTATA | 0.403
128 | CGGATTAA | 0.139
129 | CCGTGGAC | -0.162
130 | CACAAACG | 0.327
131 | AGTGGACA | -0.199
132 | AGTTCAGG | -0.0568
133 | CGGGATAA | 0.0993
134 | CACCTCCG | -0.261
135 | CGAATTTC | 0.121
136 | CACTAGAA | -0.144
137 | CCTTTGGC | -0.333
138 | ATCTAGCG | -0.0546
139 | AACAACTA | -0.142
140 | TCCAGCGA | -0.115
141 | GCAACTAC | -0.105
142 | CGAGGAGC | 0.265
143 | CACGGGCC | -0.287
144 | TAGAACAA | -0.216
145 | GTTACCGA | 0.151
146 | CTCTATGC | -0.0553
147 | CACGACTA | -0.0786
148 | GCTAGCCA | -0.313
149 | ACAGCCAT | 0.033
150 | AGTTCGAT | -0.0764

Row | Sequence | PBM E-score
151 | AATGGGGG | -0.268
152 | AACTCCGT | 0.00479
153 | AAGAAAGC | 0.0234
154 | AGGCAACT | -0.02
155 | TATCCTCA | 0.0979
156 | AAGGGACC | 0.051
157 | AACGAAAT | 0.4
158 | ACAACACA | 0.0689
159 | CAACCGAA | 0.185
160 | ACGGTAAG | 0.228
161 | GCGGGTAC | 0.179
162 | AGAATGGC | -0.137
163 | TCATCGCA | 0.162
164 | AGGGAGTG | -0.178
165 | AGCACGTG | 0.106
166 | AATAGTGA | -0.151
167 | AGAGGCAG | -0.122
168 | ACTAGCCC | -0.266
169 | CCTCATAG | -0.183
170 | AACTGTAT | -0.00739
171 | CCAGGAAG | -0.204
172 | GCTAGTAC | 0.059
